Source: publication PMC4336329 (PLoS ONE, 2015)
Hit rate of the full screen: of about 310,000 compounds, about 2,200 (0.71%) showed an effect of 50% or more. Effects have a minus sign here. This is one part of the list.

Each molecule was assayed against human ether-à-go-go-related gene (hERG) potassium channel (human, UniProt Q12809) (assay: primary screen, population patch clamp on CHO cells stably expressing hERG).
Sequence of human ether-à-go-go-related gene (hERG) potassium channel (Q12809 whole entry, looked up): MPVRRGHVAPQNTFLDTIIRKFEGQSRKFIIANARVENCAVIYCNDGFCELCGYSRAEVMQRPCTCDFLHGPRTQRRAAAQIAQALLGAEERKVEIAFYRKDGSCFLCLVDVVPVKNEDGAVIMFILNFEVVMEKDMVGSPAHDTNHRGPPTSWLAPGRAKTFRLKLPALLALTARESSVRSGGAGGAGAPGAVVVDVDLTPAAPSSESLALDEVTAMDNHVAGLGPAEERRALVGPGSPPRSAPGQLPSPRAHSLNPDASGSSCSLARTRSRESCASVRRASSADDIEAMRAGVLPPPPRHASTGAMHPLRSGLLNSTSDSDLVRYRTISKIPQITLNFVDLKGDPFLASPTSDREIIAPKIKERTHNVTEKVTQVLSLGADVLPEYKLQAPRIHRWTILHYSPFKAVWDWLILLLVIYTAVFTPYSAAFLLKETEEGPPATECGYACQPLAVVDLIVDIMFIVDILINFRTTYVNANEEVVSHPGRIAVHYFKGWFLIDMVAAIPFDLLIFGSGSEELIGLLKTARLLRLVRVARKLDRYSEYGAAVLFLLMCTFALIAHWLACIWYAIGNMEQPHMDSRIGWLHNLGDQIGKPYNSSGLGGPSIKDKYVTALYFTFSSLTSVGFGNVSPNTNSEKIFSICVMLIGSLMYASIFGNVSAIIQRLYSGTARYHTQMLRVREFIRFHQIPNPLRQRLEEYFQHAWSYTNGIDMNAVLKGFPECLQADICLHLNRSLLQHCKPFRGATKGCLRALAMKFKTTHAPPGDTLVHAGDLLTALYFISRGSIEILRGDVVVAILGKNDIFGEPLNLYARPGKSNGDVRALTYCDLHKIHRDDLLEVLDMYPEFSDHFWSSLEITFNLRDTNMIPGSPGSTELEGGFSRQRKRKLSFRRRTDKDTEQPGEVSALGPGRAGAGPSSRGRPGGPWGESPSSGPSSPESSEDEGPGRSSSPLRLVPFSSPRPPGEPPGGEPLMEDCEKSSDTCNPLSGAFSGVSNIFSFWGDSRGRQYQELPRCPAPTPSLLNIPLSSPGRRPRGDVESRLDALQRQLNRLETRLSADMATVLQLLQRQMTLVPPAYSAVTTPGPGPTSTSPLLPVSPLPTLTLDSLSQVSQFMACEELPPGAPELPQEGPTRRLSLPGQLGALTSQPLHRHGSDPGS

Row | Structure (SMILES) | hERG current change (%, negative = inhibition) at 1uM [%]
1 | O=C(Cc1ccccc1)Nc1ccc(N2CCOCC2)cc1N1CCOCC1 | 4.78
2 | O=C(NN=C1CCCC1)c1ccc(O)cc1O | 8.84
3 | Cc1cccc(NCCC#N)c1 | 15
4 | O=C(CNC(=O)c1ccccc1C(F)(F)F)N/N=C/c1cccs1 | 3.32
5 | O=C(NCCCO)/C(=C/c1ccco1)NC(=O)c1ccc(Br)o1 | 18
6 | c1ccc(Nc2ncnc3sc4c(c23)CCC4)cc1 | -0.67
7 | CSCCC(NC(=O)COc1ccccc1)C(=O)N1CCC(C(N)=O)CC1 (stereo not drawn) | 7.88
8 | Cc1ccc2c(c1)CCCN2CC(=O)Nc1cc(S(=O)(=O)N2CCCC2)ccc1Cl | 2.41
9 | CCn1c(COc2ccccc2OC)nc2ccccc21 | 12.7
10 | CC1=CCC(/C=N\Nc2nnc3c(n2)[nH]c2ccccc23)CC1 (stereo not drawn) | 4.4
11 | CCn1c(SCC(=O)Nc2cc(NC(C)=O)ccc2OC)nnc1-c1cccnc1 | 7.42
12 | O=c1c2c3c(sc2nc2n1CCCS2)CCCC3 | 0.926
13 | O=C1C2CCCN2C(c2ccc(Cl)cc2)N1c1ccccn1 (stereo not drawn) | 1.91
14 | CN(C)S(=O)(=O)c1ccc(-n2cccc2)cc1 | 3.19
15 | COc1ccc(C(=O)c2sc(NC(C)C)nc2N)cc1OC | 2.38
16 | C=CCN(Cc1nc(-c2cc(OC)ccc2OC)oc1C)C1CCS(=O)(=O)C1 (stereo not drawn) | 13.7
17 | COc1ccccc1NC(=O)c1cc(C)nc2ccccc12 | 14.4
18 | O=C(NCCCn1ccnc1)C(F)(F)C(F)(F)C(=O)NCCCn1ccnc1 | 14.4
19 | C=CCn1c2ccccc2c2nnc(SCC(=O)O)nc21 | 17.6
20 | CCOc1ccc(NC(=O)C(=O)NCCCn2ccnc2)cc1 | 11.3
21 | CCOC(=O)NC(=O)CSc1ccc(S(=O)(=O)N(C)C2CCCCC2)cn1 | -4.11
22 | Cl.OCCN1CCN(CC/C=C2/c3ccccc3Sc3ccc(C(F)(F)F)cc32)CC1 | 7.66
23 | CN1CCN(C(=O)C2CCN(S(=O)(=O)c3ccc4c(c3)oc(=O)n4C)CC2)CC1 | 4.06

Row | Structure (SMILES) | hERG current change (%, negative = inhibition) at 1uM [%]
24 | COc1cccc(N2C(=O)NC(=O)/C(=C\c3cn(C)c4ccccc34)C2=O)c1 | 10.4
25 | COCC1CCN(Cc2nc(-c3ccc4c(c3)OCO4)no2)C1 (stereo not drawn) | -0.044
26 | CC(=O)NC1=NN(C(C)=O)C(C)(c2ccc(Cl)s2)S1 (stereo not drawn) | -4.71
27 | Cl.OCCNc1nc(Nc2ccc(Cl)c(Cl)c2)nc2ccccc12 | 14.3
28 | COc1ccc(CCN2C(=O)C3CC=C(C)CC3C2=O)cc1OC (stereo not drawn) | -9.5
29 | COc1ccc(N2CCN(C(=O)c3cccc(Cn4cc(Cl)cn4)c3)CC2)cc1 | -6.31
30 | CC12CCC(C(=O)NCc3ccccc3)(OC1=O)C2(C)C (stereo not drawn) | 1.27
31 | COc1cc(NS(=O)(=O)c2ccc(N)cc2)ncn1 | 21.1
32 | CCOc1ccc2oc(C(=O)N(CC)CC(=O)Nc3c(F)cccc3F)c(C)c2c1 | 2.73
33 | COCCN1C(=O)/C(=C/c2cc3c(cc2Br)OCO3)NC1=S | 11.9
34 | CS(=O)(=O)N1CCC(C(=O)Nc2ccc(F)c(Cl)c2)CC1 | 18.9
35 | CC1CC(C)(C)NC(=S)N1CCC(=O)N1CCc2ccccc21 (stereo not drawn) | 8.92
36 | O=C(N/N=C/c1ccc(F)cc1)c1c(O)c2ccccc2[nH]c1=O | -5.47
37 | CCNc1nc(NCC)nc(N(C#N)C(C)C)n1 | 7.81
38 | Cc1ccc(C(=O)OCc2cc(=O)n3c(C)csc3n2)s1 | 3.84
39 | COCCCN1C(=O)C2C(C(=O)Nc3cccc(Cl)c3)C3C=CC2(O3)C1C(=O)NC1CCCCC1 (stereo not drawn) | 5.41
40 | O=C(COC(=O)c1cn(-c2ccccc2)nc1-c1cccs1)NC1CC1 | 9.77
41 | Cc1c(O)c(C)c2c(c1O)C(=O)C[C@@H](c1ccccc1)O2 | 11.1
42 | Cc1cccc2cc(C#N)c(NCCCNS(=O)(=O)c3ccc(Cl)cc3)nc12 | 19.1
43 | CN(CC(=O)N(C)CC(=O)Nc1c(Cl)cccc1Cl)Cc1ccc(Br)s1 | -11.8
44 | CCCc1nc(SCC(=O)Nc2nnc(CC)s2)c2c(=O)n(C)c(=O)n(C)c2n1 | 10.7
45 | CC(=O)c1cn(CCCCCCCn2cc(C(C)=O)c(=O)[nH]c2=O)c(=O)[nH]c1=O | 1.48
46 | Cc1cccc(-n2ncc3c(N)ncnc32)c1 | 1.41

Row | Structure (SMILES) | hERG current change (%, negative = inhibition) at 1uM [%]
47 | COc1ccc(NC(=O)C(c2ccccc2)c2ccccc2)cn1 | 3.9
48 | CCn1c(SCC(=O)Nc2cc(C)c(Cl)cc2OC)nnc1-c1ccco1 | 2.61
49 | CCCn1c(=O)c(C(=O)NNC(=O)c2ccccc2Cl)c(O)c2ccccc21 | 11.4
50 | O=S(=O)(Nc1nccs1)c1ccc2c(c1)OCCO2 | 3
51 | CCN1CCN(C(=O)/C=C/c2ccc(OC)cc2)CC1 | 5.09
52 | Cc1ccc(CNc2oc(-c3ccco3)nc2C#N)cc1 | 0.865
53 | Cc1cccc2sc(N(CCN(C)C)C(=O)C3CCN(S(=O)(=O)c4cccs4)CC3)nc12.Cl | 6.37
54 | CCN(CC)c1ccc2c(Nc3ccccc3)c(C=O)c(=O)oc2c1 | 8.76
55 | O=C(O)C1CCCCC1C(=O)NCCC(c1ccccc1)c1ccccc1 (stereo not drawn) | 15.4
56 | O=C(Nc1ccc(S(=O)(=O)Nc2nccs2)cc1)c1nn(-c2ccc(F)cc2)ccc1=O | 14.7
57 | CCC(C)NC(=O)c1ccc(C)c(NC(=O)C2=C(C)OCCS2)c1 (stereo not drawn) | 11.3
58 | Cc1nnc(Sc2nc3c(c(=O)n(C)c(=O)n3C)n2Cc2ccccc2Cl)s1 | 9
59 | CC(C(O)c1ccc(O)cc1)N1CCC(Cc2ccccc2)CC1.O.O=C(O)C(O)C(O)C(=O)O (stereo not drawn) | -37.8
60 | Cc1ccc(/C=N/NC(=O)C(C)NC(=O)c2ccccc2)cc1 (stereo not drawn) | 14.1
61 | O=[N+]([O-])c1c(Nc2ccc(O)cc2)cc(Cl)c2nonc12 | 5.34
62 | CCNc1nc(NC(C)(C)C)nc(SC)n1 | 9.6
63 | COc1cccc(NC(=O)C2CC(=O)N(C)C(=Nc3cccc(F)c3)S2)c1 (stereo not drawn) | 11.8
64 | Cc1nn(Cc2ccccc2)c(Cl)c1/C=C/C(=O)OC(C)C(=O)N1CCCC1 (stereo not drawn) | 10.7
65 | CSCCC(NS(=O)(=O)c1ccc2c(c1)oc(=O)n2C)C(=O)NC1CCCc2ccccc21 (stereo not drawn) | 3.7
66 | CCOc1cc(S(=O)(=O)NCCN2CCOCC2)c(C)cc1C | 16.5
67 | Cc1cc(NCc2ccccn2)n2nc(C)c(-c3ccccc3)c2n1 | 0.203
68 | CC1CCCCN1C(=O)c1cccc(NC(=O)c2ccccc2)c1 (stereo not drawn) | 0.66
69 | Cc1ccc(/C=N/n2c(C)nnc2C)s1 | 1.77

Row | Structure (SMILES) | hERG current change (%, negative = inhibition) at 1uM [%]
70 | Cc1cccc(C(C)C)c1NC(=O)COC(=O)Cc1ccsc1 | 4.93
71 | COc1ccc(-c2cc3nc(-c4ccccc4)cc(N4CCC(O)CC4)n3n2)cc1 | 1.7
72 | O=C(CSc1nnnn1-c1ccccc1)N1CCc2ccccc2C1 | -12.4
73 | CCOc1ccc(NC(=O)c2ccc(OC)cc2)cc1 | 6.61
74 | O=S1(=O)CC/C(=N\O)c2ccccc21 | 16.6
75 | O=C(NCc1ccc2c(c1)OCO2)c1ccc(CN2CCc3ccccc3C2)cc1 | 6.25
76 | O=C(/C=C/c1cccc(F)c1)N1CCN(c2ncccn2)CC1 | 12.4
77 | CC(C)(Cc1ccccc1)/[N+]([O-])=C\c1ccccc1 | 12.7
78 | CCOc1ccccc1N=C1SC(CC(=O)Nc2ccc(OC)cc2OC)C(=O)N1CCC1=CCCCC1 (stereo not drawn) | -0.403
79 | CC1C(=O)C(C)C(c2ccc(Br)cc2)NC1c1ccc(Br)cc1 (stereo not drawn) | 16.7
80 | CC(C)C(NC=C1C(=O)OC(C)(C)OC1=O)C(=O)O (stereo not drawn) | 12.2
81 | COc1ccc(C(C(=O)NC2CCCCC2)N(C(=O)c2sc(C)nc2C)c2ccc(OC)cc2)cc1 (stereo not drawn) | 17.5
82 | COc1ccc(OC)c(C(=O)c2ccc(C(=O)Nc3ccc(NC(C)=O)cc3)cc2)c1 | 15.6
83 | CN(C)C(CNC(=O)Cc1c(Cl)cccc1Cl)c1ccccc1 (stereo not drawn) | 8.65
84 | COc1ccccc1/C=C/C1C(C(=O)OCC(C)C)=C(C)N=C2SCCC(=O)N21 (stereo not drawn) | 9.17
85 | CCN(CC)S(=O)(=O)c1cc(NC(=O)COC(=O)c2ccc(NC(=O)CC#N)cc2)ccc1C | 7.02
86 | CCCCCn1c(CCCNC(=O)CC)nc2ccccc21 | -52.3
87 | COc1cc(NS(=O)(=O)c2ccc(NC(=O)c3ccc(S(=O)(=O)N4CCCCC4)cc3)cc2)ncn1 | 19.6
88 | COc1ccc(NS(=O)(=O)c2ccc(OC)c(NC(=O)CCC3CCCCC3)c2)cc1 | 13
89 | Cc1nc2oc(C(=O)c3ccc(Br)cc3)c(N)c2c2c1COC(C)(C)C2 | 18.1
90 | COc1ccc(C(=O)Nc2ccc(S(=O)(=O)Nc3nccc(C)n3)cc2)cc1 | 15.8
